56 compounds from publication PMC4336329 (PLoS ONE, 2015) can be followed below.

In all, about 310,000 compounds went through this assay and about 2,200 (0.71%) showed an effect of 50% or more. Effects have a minus sign here. The list shows a part of the results.

In the assay the target is human ether-à-go-go-related gene (hERG) potassium channel (human, UniProt Q12809). In words: primary screen, population patch clamp on CHO cells stably expressing hERG.
human ether-à-go-go-related gene (hERG) potassium channel, sequence (Q12809 whole entry, looked up): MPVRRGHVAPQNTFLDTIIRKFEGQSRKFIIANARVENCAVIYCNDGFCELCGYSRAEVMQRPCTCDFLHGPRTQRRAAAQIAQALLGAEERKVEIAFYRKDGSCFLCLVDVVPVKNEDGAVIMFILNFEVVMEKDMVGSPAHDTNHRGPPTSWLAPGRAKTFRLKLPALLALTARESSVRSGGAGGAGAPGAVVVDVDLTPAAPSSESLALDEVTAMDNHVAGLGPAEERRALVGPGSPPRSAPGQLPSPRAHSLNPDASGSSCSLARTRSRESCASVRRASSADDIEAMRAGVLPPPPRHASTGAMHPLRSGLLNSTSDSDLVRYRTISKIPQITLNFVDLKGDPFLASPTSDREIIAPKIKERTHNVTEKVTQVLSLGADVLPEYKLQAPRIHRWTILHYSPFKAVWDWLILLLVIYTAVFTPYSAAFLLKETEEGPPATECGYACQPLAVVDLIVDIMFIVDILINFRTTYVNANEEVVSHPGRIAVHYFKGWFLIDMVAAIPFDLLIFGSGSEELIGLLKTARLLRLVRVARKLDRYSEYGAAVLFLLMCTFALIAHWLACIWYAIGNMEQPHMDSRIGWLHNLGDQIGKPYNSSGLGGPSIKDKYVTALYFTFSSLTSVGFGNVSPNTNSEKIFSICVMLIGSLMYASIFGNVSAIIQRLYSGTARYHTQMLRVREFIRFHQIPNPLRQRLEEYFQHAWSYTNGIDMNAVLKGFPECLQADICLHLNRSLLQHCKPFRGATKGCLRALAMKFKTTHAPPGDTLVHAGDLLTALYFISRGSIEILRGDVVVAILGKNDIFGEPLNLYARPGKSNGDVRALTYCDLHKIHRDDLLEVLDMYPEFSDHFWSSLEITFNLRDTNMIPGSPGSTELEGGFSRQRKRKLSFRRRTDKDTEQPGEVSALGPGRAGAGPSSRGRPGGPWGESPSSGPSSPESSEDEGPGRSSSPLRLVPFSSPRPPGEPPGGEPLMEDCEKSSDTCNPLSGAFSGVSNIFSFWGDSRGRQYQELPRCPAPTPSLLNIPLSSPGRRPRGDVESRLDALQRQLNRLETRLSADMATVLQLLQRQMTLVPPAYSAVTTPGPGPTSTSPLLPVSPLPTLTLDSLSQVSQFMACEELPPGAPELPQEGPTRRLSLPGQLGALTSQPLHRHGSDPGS
Consider `COc1ccc2[nH]c(=O)c(COC(=O)c3ccco3)cc2c1`, for which the “hERG current change (%, negative = inhibition) at 1uM” value worked out at 19.3%.

For `CCc1ccc(NC(=O)CSc2nnc(-c3n[nH]c4ccccc34)n2-c2ccccc2)cc1`, the “hERG current change (%, negative = inhibition) at 1uM” value was 10.6%.

In the case of `CCc1ccc(-n2c(SCC(=O)Nc3ccc(C(=O)O)cc3)nnc2-c2ccncc2)cc1`, the “hERG current change (%, negative = inhibition) at 1uM” value is -1.14%.

In the case of `COc1ccc(N(C(=O)c2ccncc2)S(=O)(=O)c2cccc([N+](=O)[O-])c2)cc1`, the “hERG current change (%, negative = inhibition) at 1uM” value worked out at 23.9%.

Regarding `COc1ccc([N+](=O)[O-])cc1N(CC(=O)NCCSc1ccccc1)S(C)(=O)=O`, the “hERG current change (%, negative = inhibition) at 1uM” value was -2.36%.

On to `CCOC(=O)c1ccc(N2Cc3ccccc3C2=N)cc1`, for which the “hERG current change (%, negative = inhibition) at 1uM” value is listed as -25.7%.

On to `O=C(Nc1ccccn1)C1CCN(c2ncnc3c2nc2n3CCCCC2)CC1`, for which the “hERG current change (%, negative = inhibition) at 1uM” value came out at 14.9%.

Take `CCn1c(CSc2ncccn2)nnc1SCC(=O)N1CCc2ccccc21`: the “hERG current change (%, negative = inhibition) at 1uM” value is listed as -10.6%.

On to `COc1ccc(C2CC(C(F)(F)F)n3nc(C(=O)N(C)Cc4cn(C)nc4C)c(Cl)c3N2)cc1` (centres unmarked), for which the “hERG current change (%, negative = inhibition) at 1uM” value is -3.33%.

With `COc1cc(NC(=O)CSc2nc(C3CC3)nc3ccccc23)cc(OC)c1`, the “hERG current change (%, negative = inhibition) at 1uM” value came out at 13.2%.

Regarding `COC(=O)c1sc(NC(=S)NC(=O)c2cccc(Br)c2)nc1C`, the “hERG current change (%, negative = inhibition) at 1uM” value is given as 12.1%.

As to `O=C(Cn1nc2sc3ccccc3n2c(=O)c1=O)c1cccs1`, the “hERG current change (%, negative = inhibition) at 1uM” value worked out at 13.1%.

For the compound `COc1ccc(N2C(=O)C3CCCN3C2c2cccc(OC)c2)cc1` (centres unmarked), the “hERG current change (%, negative = inhibition) at 1uM” value turned out to be 6.59%.

As to `Cc1ccc(/C=C2/NC(=O)N(c3ccccc3)C2=O)o1`, the “hERG current change (%, negative = inhibition) at 1uM” value is 8.55%.

Take `CCC(=O)Nc1c(C#N)c2nc3ccccc3nc2n1-c1ccccc1C`: the “hERG current change (%, negative = inhibition) at 1uM” value stood at 24.9%.

Regarding `CN1CCN(C(=O)C2=C[C@@H](C(C)(C)C)C[C@@H](OCc3ccc(CO)cc3)O2)CC1`, the “hERG current change (%, negative = inhibition) at 1uM” value was 4.49%.

Take `COc1ccc(N2CC(NC(=O)N3CCN(C(=O)c4ccco4)CC3)CC2=O)cc1OC` (centres unmarked): the “hERG current change (%, negative = inhibition) at 1uM” value worked out at 6.55%.

Take `Clc1ccc(COn2c(-c3ccc(Cl)cc3)nc3ccccc32)cc1`: the “hERG current change (%, negative = inhibition) at 1uM” value is given as 10.3%.

As to `CCC(C)NC(=O)COC(=O)c1ccc(Cl)cc1O` (centres unmarked), the “hERG current change (%, negative = inhibition) at 1uM” value is reported as 12.6%.

In the case of `Cn1ccnc1C(O)c1ccco1` (centres unmarked), the “hERG current change (%, negative = inhibition) at 1uM” value is 5.67%.

For `CCCCSc1nc(CCC)cc(=O)[nH]1`, the “hERG current change (%, negative = inhibition) at 1uM” value was -0.222%.

Take `O=C1CCCC2=C1C1c3ccccc3C(=O)N1c1ccc(C(=O)c3ccccc3)cc1N2` (centres unmarked): the “hERG current change (%, negative = inhibition) at 1uM” value is listed as -7.46%.

As to `CC(=O)N1CCc2cc(S(=O)(=O)NCc3ccc(C)cc3)ccc21`, the “hERG current change (%, negative = inhibition) at 1uM” value was found to be 12.6%.

For the compound `COCCCN1CN=C(NS(=O)(=O)c2ccc(C)cc2)NC1`, the “hERG current change (%, negative = inhibition) at 1uM” value came out at 13.7%.

As for `C#CCSC1=C(C#N)C(c2cccs2)C(C(=O)OCC)=C(C)N1` (centres unmarked), the “hERG current change (%, negative = inhibition) at 1uM” value is given as 14.1%.

As for `COc1ccc(C2(CNC(=O)c3ccccc3)CCOCC2)cc1`, the “hERG current change (%, negative = inhibition) at 1uM” value is 15.1%.

Consider `COc1cccc(NC(=O)CSc2ccc(-c3ccco3)nn2)c1`, for which the “hERG current change (%, negative = inhibition) at 1uM” value is reported as -4.17%.

Take `O=C(CCNC(=O)c1ccc([N+](=O)[O-])cc1)Nc1ccc(Cl)c(S(=O)(=O)N2CCOCC2)c1`: the “hERG current change (%, negative = inhibition) at 1uM” value amounted to 0.84%.

With `O=[N+]([O-])c1ccc(Sc2ccc(F)cc2)nc1`, the “hERG current change (%, negative = inhibition) at 1uM” value is listed as 11.3%.

Regarding `CC1CCCCN1C(=O)COC(=O)c1cccc(NS(=O)(=O)c2ccccc2)c1` (centres unmarked), the “hERG current change (%, negative = inhibition) at 1uM” value worked out at 7.71%.

As to `CCOC(=O)CC(NC(=O)CCc1c(C)nc2ncnn2c1C)c1ccc(OC(C)C)cc1` (centres unmarked), the “hERG current change (%, negative = inhibition) at 1uM” value is listed as 7.48%.

As for `Cc1ccc(OCC(=O)N(Cc2ccccc2)C(C)(C)C)c([N+](=O)[O-])n1`, the “hERG current change (%, negative = inhibition) at 1uM” value is given as 4.26%.

Turning to `CC(=O)NCC1COc2ccccc2O1` (centres unmarked), the “hERG current change (%, negative = inhibition) at 1uM” value is reported as -6.95%.

`CC(C)CCNC(=O)NC(=O)COC(=O)c1cc(S(=O)(=O)N2CCOCC2)ccc1N1CCCCC1`: the “hERG current change (%, negative = inhibition) at 1uM” value was 3.41%.

Regarding `Cn1c(CNC(=O)c2ccc(F)cc2)nc2ccccc21`, the “hERG current change (%, negative = inhibition) at 1uM” value came to 7.04%.

Turning to `O=C(CCc1nnc(-c2ccc3c(c2)OCO3)o1)N1CCC(c2ccc(F)cc2)C1` (centres unmarked), the “hERG current change (%, negative = inhibition) at 1uM” value is on record as -0.116%.

For the compound `N#Cc1ccc(-c2csc(NC(=O)c3ccc(N4C(=O)CCC4=O)cc3)n2)cc1`, the “hERG current change (%, negative = inhibition) at 1uM” value is given as 12.6%.

As for `Cc1ccc(C(=O)N/C(=C/C=C/c2ccccc2)C(=O)NCc2ccco2)cc1`, the “hERG current change (%, negative = inhibition) at 1uM” value is on record as -10.9%.

`COc1ccccc1CN=Cc1[nH]c2ccc(Br)c(Cl)c2c1O`: the “hERG current change (%, negative = inhibition) at 1uM” value amounted to 17.4%.

In the case of `O=C(NCCC1CCCCN1S(=O)(=O)c1ccc(F)cc1)C(=O)NCc1ccncc1` (centres unmarked), the “hERG current change (%, negative = inhibition) at 1uM” value was determined as 1.91%.

As for `O=[N+]([O-])c1ccc(Sc2n[nH]c(-c3ccco3)n2)nc1`, the “hERG current change (%, negative = inhibition) at 1uM” value is 1.85%.

As to `COc1ccccc1NC(=O)NNC(=O)c1ccc2ccccc2c1O`, the “hERG current change (%, negative = inhibition) at 1uM” value is reported as -6.61%.

For the compound `O=C1C2C3CCC(O3)C2C(=O)N1c1cccc(F)c1` (centres unmarked), the “hERG current change (%, negative = inhibition) at 1uM” value turned out to be 5.89%.

As to `CNC(=O)C1=C(C)NC(=S)NC1c1cc2c(cc1OC)CCCC2` (centres unmarked), the “hERG current change (%, negative = inhibition) at 1uM” value turned out to be 0.39%.

With `O=C1CCC(=O)N1CC(=O)N1CCCc2ccccc21`, the “hERG current change (%, negative = inhibition) at 1uM” value amounted to 8.49%.

Consider `COc1cc(C(=O)NCC(=O)OCC(=O)Nc2ncc(Cl)cc2Cl)cc(OC)c1OC`, for which the “hERG current change (%, negative = inhibition) at 1uM” value was determined as 0.37%.

Consider `COc1ccc(CNC(=O)CN2C(=O)COc3ccc(S(=O)(=O)N4CCCCC4)cc32)cc1`, for which the “hERG current change (%, negative = inhibition) at 1uM” value came to 10.5%.

On to `O=C1C2C3C=CC(C3)C2C(=O)N1CCCO` (centres unmarked), for which the “hERG current change (%, negative = inhibition) at 1uM” value was -3.04%.

Take `O=C(COC(=O)c1cccs1)Nc1cccc(S(=O)(=O)N2CCOCC2)c1`: the “hERG current change (%, negative = inhibition) at 1uM” value is 10.9%.

Consider `Cn1c(=O)c2c(nc(Br)n2Cc2ccccc2Cl)n(C)c1=O`, for which the “hERG current change (%, negative = inhibition) at 1uM” value is 11.9%.

As for `Cc1cc(C)c(N=Cc2c(O)c3ccccc3oc2=O)c(C)c1`, the “hERG current change (%, negative = inhibition) at 1uM” value came out at 17.3%.

Take `CS(=O)(=O)N(CC(=O)N1CCN(Cc2ccccc2)CC1)Cc1ccccc1`: the “hERG current change (%, negative = inhibition) at 1uM” value turned out to be 4.18%.

For the compound `COC(=O)c1cccc(C(=O)N2CCCC(C(=O)c3cc(F)ccc3F)C2)c1` (centres unmarked), the “hERG current change (%, negative = inhibition) at 1uM” value is reported as -13.8%.

As to `CC(=O)OC1CCC(OC(C)=O)c2c1n([O-])c(C)c(C)[n+]2=O` (centres unmarked), the “hERG current change (%, negative = inhibition) at 1uM” value was determined as 1.44%.

Regarding `Cc1nccn1-c1ccc(C=O)cc1`, the “hERG current change (%, negative = inhibition) at 1uM” value worked out at 6.17%.

Regarding `CCCc1nc2c(s1)CCc1onc(-c3cccc([N+](=O)[O-])c3)c1-2`, the “hERG current change (%, negative = inhibition) at 1uM” value was found to be 14.4%.
